The supplement of paper PMC7826260
Some of the results follow. The data describe in vitro nicking of single-stranded DNA by Rep domains (3 µM enzyme, 1 h, 37 °C); shown is the middle of each 90-letter strand. Values are log2 of uncut reads against the no-enzyme pool; strong cutting gives strongly negative numbers. There is no active / inactive call. Shares of all reads are compared, so uncut sequences can rise above 0 when many others are cut.

Test system: T1, Rep nickase domain of banana bunchy top virus
T1 sequence (residues 1-94 of Rep, tag left off): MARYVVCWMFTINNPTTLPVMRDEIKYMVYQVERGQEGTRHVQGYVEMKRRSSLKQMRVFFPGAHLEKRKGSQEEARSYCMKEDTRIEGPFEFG
Assay: uncleaved DNA left, log2 of reads against the no-enzyme library (log2 ratio); higher = less cleavage (more negative = more Rep cleavage of the k-mer); sequences stand for … in CTCGTCCG…ACCGGAGA
Procedure: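 A pool of 90-nt single-stranded DNAs with seven random bases just before the constant AC of the nick site (name = the seven bases) was cut by 3 µM recombinant His6-SUMO-tagged Rep nickase domain (300 nM DNA, 50 mM HEPES pH 8.0, 50 mM NaCl, 1 mM MnCl2, 1 h, 37 °C, three replicates). Uncut DNA was amplified and sequenced.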

Sequence	uncleaved DNA left (log2)
GATCGCT	-0.0815
CAATATC	0.0253
TTATGGT	0.0697
CTATGCT	-0.0165
TTTTCAG	-0.113
TAGCGTT	-0.242
AAGGACA	0.0682
TCCCACC	-0.0833
ATTCCGC	-0.0322
AGAAGGG	-0.0139
CGCTCAC	-0.0462
TGTTGCA	-0.16
CCAATGA	-0.178
GTGAGGT	-0.0483
GACTTTC	-0.0923
AGACGCC	-0.00143
AGTGTTA	-0.191
ACGTTTA	0.0186
CCAGATC	0.122
TACATCA	0.0304

Sequence	uncleaved DNA left (log2)
TTGCTCA	-0.101
ATGGATC	-0.0407
GTGCCAG	0.0469
TGCTGTG	-0.106
CCGGGCC	0.115
CCGGACT	-0.166
AGTGGCG	0.000751
GTTATCC	0.113
CGACTGC	0.00191
CTGTTCC	-0.126
CAGCTAA	0.1
GACGGGC	-0.00191
TCCGAGC	-0.104
ATATCCA	0.0104
CCTATAT	-0.0622
CACAACC	0.00145
ACAAAGC	0.0486
ACAAGCG	0.0183
TGGTAAG	-0.0159
TGTTGTG	-0.0655
